Results taken from the supplement of paper PMC4967469.
A lower IC50 marks a more sensitive line; a limit (>, <) means that the fit lies beyond the doses tested. AUC sums up the same curve from the lowest dose to the 256-fold higher top dose: 1 means no effect, lower means more sensitive. For some assays here: A top dose marked as inferred comes from the curve model; the source does not state it. For some assays here: An entry number marks a drug with two screens in the source, which often give different values.

Assays:
Assay in all cases: Viability of human cancer cell lines after 72 h of drug (GDSC screen)
AZ628 = compound: Cc1ccc(NC(=O)c2cccc(C(C)(C)C#N)c2)cc1Nc1ccc2ncn(C)c(=O)c2c1 [AZ628]; conditions: top dose 4 µM; top dose inferred
Experimental: (§1)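 Human cancer cell lines in 384-well plates, medium with 10% serum, drug for 72 h over a 256-fold dose range (nine 2-fold or five 4-fold steps up to the top dose). Adherent lines were fixed and stained with the nucleic acid dye Syto60, suspension lines read with resazurin; signal relative to control wells, capped at 0 and 100%. One two-parameter sigmoid per drug and line, fitted in a mixed model over all curves with the slope shared within a line.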

AZD6244 = compound: Cn1cnc2c(F)c(Nc3ccc(Br)cc3Cl)c(C(=O)NOCCO)cc21 [AZD6244]; conditions: top dose 4 µM; screen: GDSC drug entry 1498; top dose inferred
Experimental: as §1

AS601245 = compound: N#CC(c1ccnc(NCCc2cccnc2)n1)c1nc2ccccc2s1 [AS601245]; conditions: top dose 8 µM; top dose inferred
Experimental: as §1

EX-527 = compound: NC(=O)C1CCCc2c1[nH]c1ccc(Cl)cc21 [EX-527]; conditions: top dose 20 µM
Experimental: as §1

YM201636 = compound: Nc1ccc(C(=O)Nc2cccc(-c3nc(N4CCOCC4)c4oc5ncccc5c4n3)c2)cn1 [YM201636]; conditions: top dose 5.12 µM; top dose inferred
Experimental: as §1

| Cell Line | AUC (AZ628) | IC50 (AZ628) | AUC (AZD6244) | IC50 (AZD6244) | AUC (AS601245) | IC50 (AS601245) | AUC (EX-527) | IC50 (EX-527) | AUC (YM201636) | IC50 (YM201636) |
| --- | --- | --- | --- | --- | --- | --- | --- | --- | --- | --- |
| BL-41 (Burkitt lymphoma, suspension) | 0.96 | > 4 µM | 0.994 | > 4 µM | 0.774 | 2.42 µM | 0.99 | > 20 µM | 0.751 | 1.35 µM |
| BT-474 (breast, adherent) | 0.977 | > 4 µM | 0.98 | > 4 µM | 0.874 | > 8 µM | 0.965 | > 20 µM | 0.87 | > 5.12 µM |
| BV-173 (chronic myeloid leukaemia, suspension) | 0.657 | 0.644 µM | 0.895 | 3.86 µM | 0.889 | 7.22 µM | 0.984 | > 20 µM | 0.919 | > 5.12 µM |
| Becker (glioma, adherent) | 0.925 | > 4 µM | 0.839 | 3.22 µM | 0.82 | 5.37 µM | 0.984 | > 20 µM | 0.947 | > 5.12 µM |
| C2BBe1 (large intestine, adherent) | 0.971 | > 4 µM | 0.929 | > 4 µM | 0.907 | > 8 µM | 0.972 | > 20 µM | 0.917 | > 5.12 µM |
| CA46 (Burkitt lymphoma, suspension) | 0.937 | > 4 µM | 0.984 | > 4 µM | 0.817 | 4.91 µM | 0.985 | > 20 µM | 0.684 | 1.09 µM |
| CAS-1 (glioma, adherent) | 0.858 | > 4 µM | 0.891 | > 4 µM | 0.881 | > 8 µM | 0.974 | > 20 µM | 0.852 | > 5.12 µM |
| CCRF-CEM (lymphoblastic leukaemia, suspension) | 0.908 | > 4 µM | 0.943 | > 4 µM | 0.884 | 6.23 µM | 0.989 | > 20 µM | 0.825 | 2.43 µM |
| CESS (acute myeloid leukaemia, suspension) | 0.88 | 3.12 µM | 0.973 | > 4 µM | 0.863 | 5.35 µM | 0.99 | > 20 µM | 0.661 | 0.83 µM |
| CHP-126 (neuroblastoma, suspension) | 0.983 | > 4 µM | 0.986 | > 4 µM | 0.91 | > 8 µM | 0.977 | > 20 µM | 0.889 | > 5.12 µM |
| CL-11 (large intestine, adherent) | 0.754 | 1.5 µM | 0.345 | 0.0878 µM | 0.987 | > 8 µM | 0.984 | > 20 µM | 0.986 | > 5.12 µM |
| CMK (acute myeloid leukaemia, suspension) | 0.988 | > 4 µM | 0.985 | > 4 µM | 0.737 | 2.08 µM | 0.982 | > 20 µM | 0.84 | 2.76 µM |
| NCI-SNU-16 (stomach, suspension) | 0.937 | > 4 µM | – | – | 0.989 | > 8 µM | 0.989 | > 20 µM | 0.984 | > 5.12 µM |
| RPMI-8866 (chronic myeloid leukaemia, suspension) | 0.988 | > 4 µM | – | – | 0.892 | > 8 µM | 0.971 | > 20 µM | 0.758 | 1.66 µM |
| SCC-3 (B-cell lymphoma, suspension) | 0.968 | > 4 µM | – | – | 0.921 | 6.14 µM | 0.992 | > 20 µM | 0.945 | 4.92 µM |
| SIG-M5 (acute myeloid leukaemia, suspension) | 0.085 | 0.0193 µM | – | – | 0.817 | 3.13 µM | 0.965 | > 20 µM | 0.648 | 0.735 µM |
| SK-MEL-2 (melanoma, adherent) | 0.83 | 2.66 µM | – | – | 0.852 | 6.54 µM | 0.974 | > 20 µM | 0.957 | > 5.12 µM |
| SU-DHL-1 (anaplastic large cell lymphoma, suspension) | 0.914 | 2.84 µM | – | – | 0.993 | > 8 µM | 0.995 | > 20 µM | 0.934 | 4.31 µM |
| SUP-B15 (lymphoblastic leukaemia, suspension) | 0.738 | 1.16 µM | – | – | 0.797 | 3.6 µM | 0.985 | > 20 µM | 0.785 | 2.09 µM |
| TALL-1 (T-cell lymphoblastic leukaemia, suspension) | 0.922 | > 4 µM | – | – | 0.949 | > 8 µM | 0.987 | > 20 µM | 0.977 | > 5.12 µM |
| THP-1 (acute myeloid leukaemia, suspension) | 0.902 | > 4 µM | – | – | 0.823 | 4.11 µM | 0.99 | > 20 µM | 0.89 | 4.87 µM |
| UACC-812 (breast, adherent) | 0.991 | > 4 µM | – | – | 0.99 | > 8 µM | 0.991 | > 20 µM | 0.954 | > 5.12 µM |
